Measured values as given in PubChem BioAssay AID1625 (Sanford-Burnham Center for Chemical Genomics, 2009).
“And” between values parts separate entries of the source, which are not always exact repeats. Equal values may be shown once. Some of the results follow. These are further read-outs of the screen, such as a control signal, another cell line or another target. No call is given for them. The list favours compounds with an active or inconclusive main result.

Experiment: insulin promoter activators in MIN6 cells, imaging, high-content screening, mouse beta cells (AID 1625);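 also: total cells summed across four imaged fields per well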
Settings: MIN6 insulin promoter-GFP reporter, measured here: cytotoxicity, nuclei count, at 5 µM

SMILES	cell count
COc1ccc(NC(=O)/C(C#N)=C\c2ccc(N3CCOCC3)o2)cc1	1600 cells
O=C(CSc1nnc(Cn2nnc3ccccc32)o1)N(Cc1ccc(F)cc1)c1ccccc1	287 cells
Nc1c(C(=O)Nc2nc3ccccc3s2)sc2nc(-c3cccs3)ccc12	1140 cells
CC(Sc1ccccc1)C(=O)NN=C1CCCCCC1 (configuration not stated)	1310 cells
CC(C)Cn1c(SCC(=O)N2CCc3ccccc3C2)nc2cc(Cl)ccc2c1=O	265 cells
CC(C)Oc1ccccc1C1CC(=O)Nc2c1c(=O)n(C)c(=O)n2C (configuration not stated)	402 cells
CCOC(=O)N1CCC(NC(=O)CS(=O)(=O)Cc2nc(-c3ccc(C)cc3)oc2C)CC1	348 cells
CC(=O)c1cccc(NC(=O)/C=C/c2ccc([N+](=O)[O-])s2)c1	497 cells
CN(C)c1ccc(/C=C2\CCC/C(=C\c3ccccc3)C2=O)cc1	1420 cells
COc1cccc2sc(Nc3nc(-c4ccccn4)cs3)nc12	483 cells
CCCCn1c(=O)[nH]c2nc3cc(N)ccc3nc2c1=O	1560 cells
Cc1cc(C)cc(N=Cc2[nH]c3ccc(Br)c(Cl)c3c2O)c1	1370 cells
Cc1ccc(SCC2(O)CCN(S(=O)(=O)c3ccc(Cl)cc3)CC2)cc1	464 cells
C=CCN(CC=C)S(=O)(=O)c1ccc(NC(=S)NC(=O)c2ccc(-c3ccccc3)cc2)cc1	445 cells
CCN1/C(=C/c2ccc3cc(C)ccc3[n+]2CC)Sc2cc(C)c(C)cc21	301 cells
CC(C)=C1C2CCC1C1C(=O)N(c3nc(-c4ccc(F)cc4)c(C)s3)C(=O)C21 (configuration not stated)	470 cells
Cc1ccc(C(=O)C[n+]2cc(-c3ccccc3)n3c2CCCCC3)cc1	320 cells and 271 cells
CC(C)(CNS(=O)(=O)c1ccc(Cl)cc1)N1CCCCC1	1010 cells
O=[N+]([O-])c1ccc(N/N=C/c2sc(N3CCOCC3)nc2-c2ccccc2)c(S(=O)(=O)Nc2ccccc2Cl)c1	931 cells
O=C(c1ccc2c(c1)OCO2)N1CCCC1	1490 cells
CCOC(=O)c1c(-c2ccc(C)cc2)csc1NC(=O)/C(C#N)=C/c1ccc(O)c(OC)c1	707 cells
COc1ccc(-n2c(C)cc(C(=O)CSc3nnc(-c4cccs4)o3)c2C)cc1	378 cells
CC[C@]1(O)CC2CN(CCc3c([nH]c4ccccc34)[C@@](C(=O)OC)(c3cc4c(cc3OC)N(C=O)[C@H]3[C@@](O)(C(=O)OC)[C@H](OC(C)=O)[C@]5(CC)C=CCN6CC[C@]43[C@@H]65)C2)C1 (some centres not stated)	349 cells
Cc1nn(-c2ccccc2)c(C)c1C(=O)OCC(=O)c1c(N)n(CC(C)C)c(=O)n(C)c1=O	312 cells
O=C(N/N=C/c1cc2c3c(c1O)CCCN3CCC2)c1ccccc1O	453 cells
O=C(NCc1ccco1)C1CCN(S(=O)(=O)N2CCC3(CC2)OCCO3)CC1	430 cells

SMILES	cell count
Cc1ccc(NC(=O)CCn2cccc2)cc1Cl	1420 cells
Cc1ccc(C(=O)NN2C(=O)/C(=C/c3cn(C)c4ccccc34)SC2=S)cc1	1170 cells
CC1CCCCC1NC(=O)C1CCCN1S(=O)(=O)c1cccc2nsnc12 (configuration not stated)	467 cells
Nc1c(C(=O)C2CC2)sc2nc(-c3ccccc3)cc(C(F)(F)F)c12	1260 cells
Cc1cc(S(=O)(=O)NC2CCCCC2)c(C)s1	1300 cells
COc1nc(OC)nc(N2CCC(C(=O)NCc3cccs3)CC2)n1	1240 cells
CCCCCCN(C(=O)CCCCCN1C(=O)NC(c2ccc(-c3ccccc3)cc2)C(C(=O)OCc2ccccc2)=C1C)C(C(=O)NCCCC)c1ccc(OCC(=O)OC)c(C(=O)OC)c1 (configuration not stated)	444 cells
CN1/C(=C\C=C(/C#N)C(=O)Nc2ccccc2F)C(C)(C)c2ccccc21	1260 cells
O=C(Nc1cnn(Cc2ccc(F)cc2)c1)c1cc(-c2cccs2)on1	243 cells
Cc1nc(NC(C)c2ccccc2)c2oc3ccccc3c2n1 (configuration not stated)	321 cells
O=C(Cn1ncn2c(cc3ccccc32)c1=O)NCc1ccco1	1270 cells
Nc1ncnc(Nc2cc(Cl)cc(Cl)c2)c1[N+](=O)[O-]	394 cells
COc1ccc2nc(SCC(=O)Nc3ccc(S(=O)(=O)N4CCCC4)cc3)c(C#N)cc2c1	977 cells
N#C/C(=C/c1ccc(N2CCOCC2)o1)C(=O)Nc1ccccc1	1510 cells
CCOCCN1CCN(c2c(CC)c(C)nc3cc(-c4cc(OC)cc(OC)c4)nn23)CC1	446 cells
COC(=O)C1CCCN1S(=O)(=O)c1ccc2ccccc2c1 (configuration not stated)	487 cells
O=C1C(Cl)=C(NCCN2CCCCC2)C(=O)c2ccccc21	497 cells
N#C/C(=C\N1CCN(Cc2ccc3c(c2)OCO3)CC1)c1nc2ccccc2s1	1200 cells
CCN(CC)c1ccc2cc(C#N)c(=O)oc2c1	1430 cells
COc1ccc(NC(=O)N2CCN(c3nc(-c4cccc(OC)c4)cs3)CC2)cc1	481 cells
Cc1ccc(-c2nc(C(Cl)Cl)c3ccccc3n2)cc1	473 cells
Cc1cc(C)c2nc(NNC(=O)c3cc(-c4cccs4)nc4ccccc34)sc2c1	1180 cells
Cc1ccc(-c2cc(N)n(-c3ccccc3)n2)cc1	1290 cells
COC(=O)c1cc2c(-c3ccccc3)c(C)c3ccccn3c-2c1C(=O)OC	955 cells
O=[N+]([O-])c1ccc(N/N=C/c2cn(Cc3ccc(F)cc3)c3ccccc23)nc1	1260 cells
N#C/C(=C/c1ccc(N2CCCCCC2)o1)c1ccc(Cl)cc1	1010 cells

SMILES	cell count
Nc1c(Cl)ncnc1N/N=C/c1ccccn1	355 cells
CN(C)c1ccc(/C=C2\SC(=O)N(CCc3nnc(N)s3)C2=O)cc1	906 cells
CCN(CC)c1ccc(/C=C(\C#N)c2nc(-c3cccs3)c(NC(C)=O)s2)cc1	1190 cells
O=c1c2cccc3c(N4CCOCC4)ccc(c32)c2nc3ccccc3n12	757 cells
CC1CC(C)CN(C(=O)c2cccc3c2-c2ccccc2C3=O)C1 (configuration not stated)	980 cells
COc1ccc(C(=O)N2CCN(c3ccc([N+](=O)[O-])c(NCCc4ccc(OC)c(OC)c4)c3)CC2)cc1	331 cells
CCN(CC)c1ccc(/C=N/NC(=O)c2cnccn2)c(O)c1	463 cells
CC[n+]1c(/C=C2\C=C(C)CC(C)C2)sc2ccccc21 (configuration not stated)	352 cells
COc1ccc(-c2c[n+]3c(n2-c2ccccc2)CCCCC3)cc1	449 cells
O=S1(=O)c2cccc3cccc(c23)N1Cc1nnc(-c2ccccc2Br)o1	497 cells
NC(N)=N/N=C/c1c(Cl)cccc1Cl	340 cells
CCOc1cccc(C2c3c(oc4cc(C)c(C)cc4c3=O)C(=O)N2CCCN(C)C)c1 (configuration not stated)	230 cells
CCC(C)N1C(=O)/C(=C/c2c(NCCCOC(C)C)nc3c(C)cccn3c2=O)SC1=S (configuration not stated)	1560 cells
O=[N+]([O-])c1ccc(N=Nc2c(Cl)cc(O)cc2Cl)cc1	237 cells
CC(C)CC(NC(=O)C1CCC(C)CC1)C(=O)NCc1cccnc1 (configuration not stated)	450 cells
Cc1ccc(NC(=O)/C=C/c2ccc([N+](=O)[O-])s2)c(C)c1	854 cells
COc1cc2c3nnc(-c4ccc(F)cc4)c-3cn(Cc3ccc(F)cc3)c2cc1OC	648 cells
CCN1/C(=C\C=C(C(C)=O)C(C)=O)Sc2ccccc21	1000 cells
O=C1C(Nc2ccccc2)=C/C(=N/S(=O)(=O)c2cccs2)c2ccccc21	334 cells
Cc1cc2oc(=O)cc(Cn3ncc(Cl)c(Cl)c3=O)c2cc1Cl	332 cells
O=C(Nc1ccc2c(c1)OCO2)c1ccc2c(c1)OCO2	369 cells
CCCCn1c(=N)n(CC(O)COc2ccccc2)c2ccccc21 (configuration not stated)	435 cells
CCOCCCNc1nc2c(C)cccn2c(=O)c1/C=C1\SC(=S)N(C(C)CC)C1=O (configuration not stated)	1290 cells
CCC(=Nc1ccc(Cc2ccncc2)cc1)c1c(O)n(C)c(=O)n(C)c1=O	230 cells
CCCCCCCn1c2c(c(=N)c3ccccc31)CCC2	178 cells
COC(=O)C1=NNCC12CC(=O)N(c1ccc(Br)cc1)C2=O (configuration not stated)	393 cells

SMILES	cell count
CN(C)c1nc(=Nc2cccc(Cl)c2)ss1	471 cells
CCOC(=O)/C(=C\C=C1/Sc2cc(OCC)c(OCC)cc2N1CC)C(C)=O	1100 cells
O=C(O)CCCCCN1C(=O)/C(=C\c2ccc(-c3ccc(Cl)cc3)o2)SC1=S	1080 cells
Cc1ccc(C)c(N2CCN(C(c3ccc(N(C)C)cc3)c3nnnn3C(C)(C)C)CC2)c1 (configuration not stated)	319 cells
Cc1cc(C)n(C(=O)CCC2COc3ccccc3O2)n1 (configuration not stated)	1300 cells
CC(=O)c1c(N2CCOCC2)[nH]c(-c2ccccc2)nc1=S	1290 cells
CC(C)NC(=O)N1CCN(c2ccncc2S(=O)(=O)N2CCOCC2)CC1	1310 cells
COC(=O)c1cc(Cl)c(N)cc1OC	403 cells
Oc1ccc(Nc2nc(N3CCCC3)c3ccccc3n2)cc1	365 cells
CN(C)S(=O)(=O)Oc1cccc(C(=O)Nc2ccc([N+](=O)[O-])cc2)c1	938 cells
CCN(CC(=O)NCCc1ccccc1)S(=O)(=O)c1ccc(C)cc1	411 cells
CCN1CCS/C1=C\C=C\C1=[N+](CC)CCS1	383 cells
O=C(NCCN1CCCC1)C1(S(=O)(=O)c2ccc(Cl)cc2)CC1	1570 cells
CC(C)/C=C1\CC/C(=C\c2ccc(N(C)C)cc2)C1=O	1360 cells
O=C(Cc1nc(-c2ccc([N+](=O)[O-])cc2)cs1)Nc1ccccc1	1240 cells
O=C(Nc1ccccc1Cl)/C(Cl)=C(\Cl)S(=O)c1ccccc1 (configuration not stated)	365 cells
COc1cc(/C=N/Nc2nc(Nc3ccc(C)cc3)nc(-n3nc(C)cc3C)n2)cc(OC)c1OC	487 cells
CCCC1CC(C)(c2csc(Nc3ccc(OCC)cc3)n2)OC1=O (configuration not stated)	432 cells
O=C(Nc1nnc(-c2ccc3c(c2)CCCC3)o1)C1COc2ccccc2O1 (configuration not stated)	356 cells
CCN1C(=O)/C(=C/c2ccc(N3CCCC3)cc2)NC1=S	1030 cells
CCOC(=O)[C@@H]1C(c2c(OC)cc(OC)cc2OC)=NO[C@@H]1C(=O)OCC	412 cells
C/C(CC(=O)Nc1c(C)cc(C)cc1C)=N\NC(=O)OC(C)(C)C	327 cells
CCCC(=O)N1c2ccccc2C(=C2SC(C(=O)OC)=C(C(=O)OC)S2)C(=S)C1(C)C	479 cells
COc1ccccc1N1CCN(C(c2ccccc2)c2nnnn2CCc2ccccc2)CC1 (configuration not stated)	466 cells
